The supplement of paper PMC8728848
This is one part of the list.

Assays:
Experiment in all cases: glycan array binding signal (z-score within array); higher = stronger binding
Conditions in all cases: glycan notation: IUPAC condensed, linker removed
[1] = molecular target: Neu5Ac(a2-3)Gal(b1-4)GlcNAc(b1-3)Gal(b1-4)GlcNAc(b1-3)Gal(b1-4)GlcNAc
How it was run: (§1)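 Arrays were curated from the Consortium for Functional Glycomics database, 3228 in total, and kept only where the protein sequence was available. Binding is expressed as a within-array Z-score. This score was averaged across arrays of the same protein sequence at different concentrations or buffers and across linkers, and negative values can be read as non-binding.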

[2] = molecular target: Neu5Ac(a2-3)Gal(b1-4)GlcNAc(b1-3)Gal(b1-4)GlcNAc(b1-3)Gal(b1-4)GlcNAc(b1-2)Man(a1-3)[Neu5Ac(a2-3)Gal(b1-4)GlcNAc(b1-3)Gal(b1-4)GlcNAc(b1-3)Gal(b1-4)GlcNAc(b1-2)Man(a1-6)]GalNAc
How it was run: as §1

[3] = molecular target: Neu5Ac(a2-3)Gal(b1-4)GlcNAc(b1-3)Gal(b1-4)GlcNAc(b1-3)GalNAc
How it was run: as §1

[4] = molecular target: Neu5Ac(a2-3)Gal(b1-4)GlcNAc(b1-3)Gal(b1-4)GlcNAc(b1-3)[Neu5Ac(a2-3)Gal(b1-4)GlcNAc(b1-3)Gal(b1-4)GlcNAc(b1-6)]GalNAc
How it was run: as §1

[5] = molecular target: Neu5Ac(a2-3)Gal(b1-4)GlcNAc(b1-3)Gal(b1-4)GlcNAc(b1-6)[Gal(b1-3)]GalNAc
How it was run: as §1

[6] = molecular target: Neu5Ac(a2-3)Gal(b1-4)GlcNAc(b1-3)Gal(b1-4)[Fuc(a1-3)]GlcNAc
How it was run: as §1

[7] = molecular target: Neu5Ac(a2-3)Gal(b1-4)GlcNAc(b1-3)GalNAc
How it was run: as §1

[8] = molecular target: Neu5Ac(a2-3)Gal(b1-4)GlcNAc(b1-3)[Neu5Ac(a2-3)Gal(b1-4)GlcNAc(b1-6)]GalNAc
How it was run: as §1

[9] = molecular target: Neu5Ac(a2-3)Gal(b1-4)GlcNAc(b1-6)GalNAc
How it was run: as §1

[10] = molecular target: Neu5Ac(a2-3)Gal(b1-4)GlcNAc(b1-6)[Gal(b1-3)]GalNAc
How it was run: as §1

[11] = molecular target: Neu5Ac(a2-3)Gal(b1-4)GlcNAc(b1-6)[Neu5Ac(a2-3)Gal(b1-3)]GalNAc
How it was run: as §1

[12] = molecular target: Neu5Ac(a2-3)Gal(b1-4)GlcNAc6S
How it was run: as §1

[13] = molecular target: Neu5Ac(a2-3)Gal(b1-4)[Fuc(a1-3)]GlcNAc
How it was run: as §1

[14] = molecular target: Neu5Ac(a2-3)Gal(b1-4)[Fuc(a1-3)]GlcNAc(b1-2)Man
How it was run: as §1

[15] = molecular target: Neu5Ac(a2-3)Gal(b1-4)[Fuc(a1-3)]GlcNAc(b1-3)Gal
How it was run: as §1

[16] = molecular target: Neu5Ac(a2-3)Gal(b1-4)[Fuc(a1-3)]GlcNAc(b1-3)Gal(b1-4)GlcNAc
How it was run: as §1

[17] = molecular target: Neu5Ac(a2-3)Gal(b1-4)[Fuc(a1-3)]GlcNAc(b1-3)Gal(b1-4)[Fuc(a1-3)]GlcNAc(b1-3)Gal(b1-4)[Fuc(a1-3)]GlcNAc
How it was run: as §1

[18] = molecular target: Neu5Ac(a2-3)Gal(b1-4)[Fuc(a1-3)]GlcNAc(b1-3)GalNAc
How it was run: as §1

[19] = molecular target: Neu5Ac(a2-3)Gal(b1-4)[Fuc(a1-3)]GlcNAc(b1-6)[Gal(b1-3)]GalNAc
How it was run: as §1

[20] = molecular target: Neu5Ac(a2-3)Gal(b1-4)[Fuc(a1-3)]GlcNAc(b1-6)[Neu5Ac(a2-3)Gal(b1-3)]GalNAc
How it was run: as §1

[21] = molecular target: Neu5Ac(a2-3)Gal(b1-4)[Fuc(a1-3)]GlcNAc6S
How it was run: as §1

[22] = molecular target: Neu5Ac(a2-3)Gal6S(b1-4)GlcNAc
How it was run: as §1

[23] = molecular target: Neu5Ac(a2-3)Gal6S(b1-4)[Fuc(a1-3)]GlcNAc
How it was run: as §1

Neu5Ac(a2-3)GalNAc = molecular target: Neu5Ac(a2-3)GalNAc
How it was run: as §1

[24] = molecular target: Neu5Ac(a2-3)GalNAc(b1-4)GlcNAc
How it was run: as §1

[25] = molecular target: Neu5Ac(a2-3)[GalNAc(b1-4)]Gal(b1-4)Glc
How it was run: as §1

[26] = molecular target: Neu5Ac(a2-3)[GalNAc(b1-4)]Gal(b1-4)GlcNAc
How it was run: as §1

[27] = molecular target: Neu5Ac(a2-3)[GalNAc(b1-4)]Gal(b1-4)GlcNAc(b1-3)GalNAc
How it was run: as §1

[28] = molecular target: Neu5Ac(a2-3)[Neu5Ac(a2-6)]GalNAc
How it was run: as §1

Neu5Ac(a2-6)Gal = molecular target: Neu5Ac(a2-6)Gal
How it was run: as §1

[29] = molecular target: Neu5Ac(a2-6)Gal(b1-3)GlcNAc(b1-3)[Gal(b1-4)GlcNAc(b1-6)]Gal(b1-4)Glc
How it was run: as §1

Neu5Ac(a2-6)Gal(b1-4)Glc = molecular target: Neu5Ac(a2-6)Gal(b1-4)Glc
How it was run: as §1

[30] = molecular target: Neu5Ac(a2-6)Gal(b1-4)GlcNAc
How it was run: as §1

[31] = molecular target: Neu5Ac(a2-6)Gal(b1-4)GlcNAc(b1-2)Man
How it was run: as §1

[32] = molecular target: Neu5Ac(a2-6)Gal(b1-4)GlcNAc(b1-2)Man(a1-3)Man(b1-4)GlcNAc(b1-4)GlcNAc
How it was run: as §1

[33] = molecular target: Neu5Ac(a2-6)Gal(b1-4)GlcNAc(b1-2)Man(a1-3)[Gal(b1-4)GlcNAc(b1-2)Man(a1-6)]Man(b1-4)GlcNAc(b1-4)GlcNAc
How it was run: as §1

[34] = molecular target: Neu5Ac(a2-6)Gal(b1-4)GlcNAc(b1-2)Man(a1-3)[GlcNAc(b1-2)Man(a1-6)]Man(b1-4)GlcNAc(b1-4)GlcNAc
How it was run: as §1

[35] = molecular target: Neu5Ac(a2-6)Gal(b1-4)GlcNAc(b1-2)Man(a1-3)[GlcNAc(b1-4)][Neu5Ac(a2-6)Gal(b1-4)GlcNAc(b1-2)Man(a1-6)]Man(b1-4)GlcNAc(b1-4)GlcNAc
How it was run: as §1

B1: OGAA (protein)
chain: MVQKESQATLEERESELSSNPAASAGASLEPPAAPAPGEDNPAGAGGAAVAGAAGGARRFLCGVVEGFYGRPWVMEQRKELFRRLQKWELNTYLYAPKDDYKHRMFWREMYSVEEAEQLMTLISAAREYEIEFIYAISPGLDITFSNPKEVSTLKRKLDQVSQFGCRSFALLFADIDHNMCAADKEVFSSFAHAQVSITNEIYQYLGEPETFLFCPTEYCGTFCYPNVSQSPYLRTVGEKLLPGIEVLWTGPKVVSKEIPVESIEEVSKIIKRAPVIWDNIHANDYDQKRLFLGPYKGRSTELIPRLKGVLTNPNCEFEANYVAIHTLATWYKSNMNGVRKDVVMTDSEDSTVSIQIKLENEGSDEDIETDVLYSPQMALKLALTEWLQEFGVPHQY
glycan array binding signal (z-score) [1]: -0.06 | glycan array binding signal (z-score) [2]: -0.088 | glycan array binding signal (z-score) [3]: -0.062 | glycan array binding signal (z-score) [4]: -0.106 | glycan array binding signal (z-score) [5]: -0.112 | glycan array binding signal (z-score) [6]: -0.073 | glycan array binding signal (z-score) [7]: -0.086 | glycan array binding signal (z-score) [8]: -0.114 | glycan array binding signal (z-score) [9]: -0.066 | glycan array binding signal (z-score) [10]: -0.107 | glycan array binding signal (z-score) [11]: -0.046 | glycan array binding signal (z-score) [12]: -0.095 | glycan array binding signal (z-score) [13]: -0.127 | glycan array binding signal (z-score) [14]: -0.097 | glycan array binding signal (z-score) [15]: -0.114 | glycan array binding signal (z-score) [16]: -0.006 | glycan array binding signal (z-score) [17]: -0.065 | glycan array binding signal (z-score) [18]: 0.017 | glycan array binding signal (z-score) [19]: -0.025 | glycan array binding signal (z-score) [20]: 0.007 | glycan array binding signal (z-score) [21]: -0.083 | glycan array binding signal (z-score) [22]: -0.047 | glycan array binding signal (z-score) [23]: 0.086 | glycan array binding signal (z-score) (Neu5Ac(a2-3)GalNAc): -0.113 | glycan array binding signal (z-score) [24]: -0.098 | glycan array binding signal (z-score) [25]: -0.078 | glycan array binding signal (z-score) [26]: -0.106 | glycan array binding signal (z-score) [27]: -0.118 | glycan array binding signal (z-score) [28]: -0.129 | glycan array binding signal (z-score) (Neu5Ac(a2-6)Gal): -0.077 | glycan array binding signal (z-score) [29]: -0.122 | glycan array binding signal (z-score) (Neu5Ac(a2-6)Gal(b1-4)Glc): -0.12 | glycan array binding signal (z-score) [30]: -0.073 | glycan array binding signal (z-score) [31]: -0.038 | glycan array binding signal (z-score) [32]: -0.135 | glycan array binding signal (z-score) [33]: -0.073 | glycan array binding signal (z-score) [34]: -0.019 | glycan array binding signal (z-score) [35]: -0.117
